# The whole screen tested about 2,100 compounds, of which about 670 (32%) were called active. Inconclusive means that the source gave no clear call. Such entries were picked first, then a sample of the others. Calls come from the whole dose curve; as a rule, active = well fitted inhibition curve with a large enough effect; inconclusive = small, poorly fitted or top-dose-only effect; inactive = no such curve, though single readings can be large or run the other way. Potencies beside an inconclusive call are fits to weak or partial responses and may not hold up.
# Experiment: CMV-Luciferase Counterscreen for Inhibitors of ATXN expression; note: nearly all actives have a fitted effect of over 55% in size
# Conditions: HEK-293 CMV-luciferase reporter, luminescence, 24 h; series mostly up to 57.5 µM; activity change, negative = inhibition: at the top concentration
# % is set by controls: 0 for no effect and ±100 for the full control effect; potency is the fitted concentration of half-maximal effect; tags give direction and shape of the fitted curve.
SMILES,Potency,"activity change, negative = inhibition"
CN(Cc1ccccc1)C(=O)c1ccc(Nc2nc(C(N)Cc3ccccc3)cs2)nc1 (stereo unspecified),"inconclusive: 31.6 µM [inhibitor, single point]",
CCOC(=O)N1CCN(S(=O)(=O)c2ccc(C(=O)NNc3nc4c(C)cc(C)cc4s3)cc2)CC1,"inconclusive: 1 µM [inhibitor, partial curve, poor fit]",
O=C(NNC(=O)C(c1ccccc1)c1ccccc1)c1ccccn1,"inconclusive: 3.55 µM [inhibitor, full curve, poor fit]",
Cc1cc(NC(=O)CSc2nccn2-c2cccc(C)c2C)no1,"inconclusive: 3.55 µM [inhibitor, partial curve, poor fit]",
COc1ccc(NC(C)C(=O)N/N=C/c2c(O)ccc3ccccc23)cc1 (stereo unspecified),active: 6.31 µM,
Cc1ccc(C(=O)NC(C)CCc2ccccc2)cc1S(=O)(=O)N1CCOCC1 (stereo unspecified),"inconclusive: 12.6 µM [inhibitor, partial curve]",
O=C(NNc1nc2ccc(Cl)cc2s1)c1cc(-c2cccs2)nc2ccccc12,"inconclusive: 3.55 µM [inhibitor, single point]",
O=C(Nc1nc(-c2ccccc2)cs1)c1ccccc1NS(=O)(=O)c1ccc(F)cc1,active: 1 µM,
O=C(CC1NCCc2ccccc21)Nc1ccc(Cl)cc1 (stereo unspecified),,inactive: 5.88% [at 11.4 µM]
COCOCCn1cc(CN2CCS(=O)(=O)N(Cc3ccc(-c4ccc(OC)cc4)cc3)C(CC(C)C)C2=O)nn1 (stereo unspecified),"inconclusive: 39.8 µM [inhibitor, single point]",
CC(=O)NC(C)c1cc(Cl)c2cccnc2c1O (stereo unspecified),"inconclusive: 7.08 µM [inhibitor, partial curve, poor fit]",
COC1=CC(=O)C=C(OC)C1(O)CC(C)=O,,inactive: -10%
CC1CCCCN1C(=O)C1CCN(c2nc(-c3ccccc3)nc3c2CCC3)CC1 (stereo unspecified),active: 22.4 µM,
CN(C)S(=O)(=O)c1cccc(N2C(=O)CC3(CCCCC3)CC2=O)c1,,inactive: -19.6% [at 11.4 µM]
Cc1c(C(=O)Nc2ccc(-c3nnc4n3CCCCC4)cc2)oc2c1ccc1ccccc12,"inconclusive: 7.08 µM [inhibitor, single point]",
CN1C/C(=C/c2cccnc2)C(=O)/C(=C/c2cccnc2)C1,,inactive: -8.05% [at 11.4 µM]
COC(=O)c1ccsc1NC(=O)CN1CCN(Cc2ccc3c(c2)OCO3)CC1,"inconclusive: 39.8 µM [inhibitor, single point]",
O=C(CNc1ccccc1)N/N=C/c1c(O)ccc2ccccc12,"inconclusive: 0.708 µM [inhibitor, full curve, poor fit]",
Cc1ccc(S(=O)(=O)Nc2cccc3cccnc23)c([N+](=O)[O-])c1,,inactive: 80.5%
CN1CCN(c2ccc(S(=O)(=O)N3CCCCC3)cc2NC(=O)/C=C/c2ccc(Cl)c([N+](=O)[O-])c2)CC1,,inactive: -27% [at 11.4 µM]
CC1=CC(C)(C)Nc2ccc(OC(=O)CN3C(=O)CCC3=O)cc21,"inconclusive: 2 µM [inhibitor, partial curve]",

SMILES,Potency,"activity change, negative = inhibition"
COc1ccc(NS(=O)(=O)c2ccc(NC(=O)c3ccc(CN4CCOCC4)cc3)cc2)cc1,"inconclusive: 2.82 µM [inhibitor, full curve]",
O=c1c2c(nc3c(-c4ccc(Cl)cc4)c[nH]n13)CCC2,"inconclusive: 0.891 µM [inhibitor, full curve, poor fit]",
Fc1ccc(Nc2nnc(C(F)(F)F)s2)cc1Cl,"inconclusive: 8.91 µM [inhibitor, partial curve]",
Oc1ccc(Cl)cc1Sc1cc(Cl)ccc1O,"inconclusive: 4.47 µM [inhibitor, full curve, poor fit]",
O=C(N/N=C/c1ccccc1O)C1CC(=O)N(c2ccc(F)cc2)C1 (stereo unspecified),"inconclusive: 4.47 µM [inhibitor, partial curve, poor fit]",
CCCOc1ccccc1C1NC(=O)NC(C)=C1C(=O)OCc1ccccc1 (stereo unspecified),"inconclusive: 8.91 µM [inhibitor, single point]",
Cc1c(-c2cccc(Cl)c2)nc2ccccc2c1C(=O)OC/C(O)=C(\C#N)c1nc2ccccc2[nH]1,"inconclusive: 39.8 µM [inhibitor, single point]",
Cc1cc(-c2ccccc2)n(-c2cc(N/N=C/c3ccccc3O)ncn2)n1,"inconclusive: 10 µM [inhibitor, partial curve, poor fit]",
COc1ccc(/C=C2\SC(=S)N(CCCC(=O)Nc3ccccn3)C2=O)cc1OC,"inconclusive: 20 µM [inhibitor, partial curve]",
O=C(Nc1nc(NC(=O)c2ccco2)n(-c2ccccc2)n1)c1ccccc1,active: 6.31 µM,
CS(=O)(=O)N1CCc2cc(-c3csc(NC(=O)Cc4cccs4)n3)ccc21,"inconclusive: 3.98 µM [inhibitor, partial curve, poor fit]",
CN1CCN(c2nc(-c3ccccn3)nc3ccccc23)CC1,,inactive: -26.3%
OC1(c2ccc(Cl)cc2)CCN(Cc2c[nH]c3ccccc23)CC1,,inactive: -23.5% [at 11.4 µM]
CCOC(=O)C(CC)(CC)C(=O)/C=C/c1ccc(OC)cc1,"inconclusive: 22.4 µM [inhibitor, single point]",
NS(=O)(=O)c1ccc(Nc2nc(-c3ccc(F)cc3)cs2)cc1,"inconclusive: 3.16 µM [inhibitor, partial curve]",
COc1ccccc1C(=O)NNC1=C(C(=O)C(F)(F)F)CCC1,"inconclusive: 0.794 µM [inhibitor, partial curve, poor fit]",
Cc1cc(C)nc(N/N=C2/CCCC/C2=C\c2ccccc2)n1,active: 3.16 µM,
Cn1c(NCCN2CCCC2)nc2cc(-c3ccsc3)sc2c1=O,,inactive: -18.1%
CCCn1ncc(CN2CCC(C(=O)Nc3cccc(-c4cccc(F)c4)c3)CC2)c1C,"inconclusive: 28.2 µM [inhibitor, single point]",
COC(=O)c1ccc2c(c1)C(C)(C)C(/C=C/c1ccc(OC)c(OC)c1OC)=[N+]2C,"inconclusive: 3.55 µM [inhibitor, partial curve, poor fit]",

# Reference: PubChem BioAssay AID1745847 (National Center for Advancing Translational Sciences (NCATS), 2022)
